Data published in the antibiotic and cytotoxicity screens of Wong et al. (2023).
The list shows a part of the results.

System: S. aureus RN4220
Experiment: growth inhibition call (relative growth <= 0.2)
Details: 50 µM

Growth inhibition call, inactive:
C[n+]1cccc(C(=O)O)c1
C[C@H]1CCCCO[C@H](CN(C)Cc2ccc(C(=O)O)cc2)[C@@H](C)CN([C@@H](C)CO)C(=O)c2cc(NC(=O)Cc3ccccc3)ccc2O1
CC(C)NC(=O)N(C)C[C@@H]1Oc2c(NS(=O)(=O)c3ccc(F)cc3)cccc2C(=O)N([C@H](C)CO)C[C@@H]1C
Cc1noc(C)c1NC(=O)Nc1ccc2c(c1)C(=O)N([C@@H](C)CO)C[C@@H](C)[C@H](CN(C)S(=O)(=O)c1ccccc1)OCCCC[C@@H](C)O2
CC(C)NC(=O)N(C)C[C@@H]1OCCCC[C@@H](C)Oc2ccc(NC(=O)C3CCCCC3)cc2C(=O)N([C@H](C)CO)C[C@H]1C
CN(C)S(=O)(=O)N(C)c1ccccc1
COc1ccc(-c2coc3cc(O)ccc3c2=O)c(O)c1O
C[C@@H]1CCCCO[C@@H](CN(C)C(=O)c2ccccc2)[C@H](C)CN([C@@H](C)CO)C(=O)c2cc(NS(=O)(=O)c3ccccc3)ccc2O1
CCCCC(O)c1ccccc1 (stereo not drawn)
NCc1ccc(S(=O)(=O)O)cc1
C[C@H]1CN([C@@H](C)CO)S(=O)(=O)c2ccc(C3=CCCCC3)cc2O[C@@H]1CN(C)S(=O)(=O)c1cn(C)cn1
COc1ccc(CCN2C(=O)[C@@]3(c4ccc([N+](=O)[O-])cc4)CC(=O)N(C4CCCCC4)[C@@H]3c3ccc(CO)cc32)cc1
C[C@H](CO)N1C[C@H](C)[C@@H](CN(C)C(=O)Nc2ccc3c(c2)OCO3)Oc2ccc(NC(=O)CCCN(C)C)cc2C1=O
